According to the supplement of paper PMC11876631:
Where a chain is given by its changes, count along the chain named. In names and notes the source's numbering stands. ± gives the standard deviation of the averaged measurements. Laboratory Escherichia coli strains with one amino-acid change in an essential protein, pooled on minimal glucose agar with carbenicillin or gentamicin at twice the control MIC (plus kanamycin and chloramphenicol for the plasmids), 48 h. Fold change of barcode share against drug-free plates; higher = less susceptible. Active = above 20 in both replicates (the paper's putatively resistant). '<' = one read or none on drug, '>' = one read or none on a drug-free plate. Shares are relative, so most strains fall below 1 when a few take over. Listed are strains with at least 15 reads on both drug-free plates, and hits; most hits rest on fewer reference reads. Replicate rank correlation about 0.5. Edits are read from barcodes.

B1: rnpA V88A (protein)
chain: MVKLAFPRELRLLTPSQFTFVFQQPQRAGTPQITILGRLNSLGHPRIGLTVAKKNVRRAHERNRIKRLTRESFRLRQHELPAMDFVVAAKKGVADLDNRALSEALEKLWRRHCRLARGS
B2: accA I115W (protein)
chain: MSLNFLDFEQPIAELEAKIDSLTAVSRQDEKLDINIDEEVHRLREKSVELTRKIFADLGAWQIAQLARHPQRPYTLDYVRLAFDEFDELAGDRAYADDKAIVGGIARLDGRPVMWIGHQKGRETKEKIRRNFGMPAPEGYRKALRLMQMAERFKMPIITFIDTPGAYPGVGAEERGQSEAIARNLREMSRLGVPVVCTVIGEGGSGGALAIGVGDKVNMLQYSTYSVISPEGCASILWKSADKAPLAAEAMGIIAPRLKELKLIDSIIPEPLGGAHRNPEAMAASLKAQLLADLADLDVLSTEDLKNRRYQRLMSYGYA
B3: bioF L246A (protein)
chain: MSWQEKINAALDARRAADALRRRYPVAQGAGRWLVADDRQYLNFSSNDYLGLSHHPQIIRAWQQGAEQFGIGSGGSGHVSGYSVVHQALEEELAEWLGYSRALLFISGFAANQAVIAAMMAKEDRIAADRLSHASLLEAASLSPSQLRRFAHNDVTHLARLLASPCPGQQMVVTEGVFSMDGDSAPLAEIQQVTQQHNGWLMVDDAHGTGVIGEQGRGSCWLQKVKPELLVVTFGKGFGVSGAAVACSSTVADYLLQFARHLIYSTSMPPAQAQALRASLAVIRSDEGDARREKLAALITRFRAGVQDLPFTLADSCSAIQPLIVGDNSRALQLAEKLRQQGCWVTAIRPPTVPAGTARLRLTLTAAHEMQDIDRLLEVLHGNG
B4: bioF L246Q (protein)
chain: B3 chain with A246Q
B5: bioF L246P (protein)
chain: B3 chain with A246P
B6: bioF I320A (protein)
chain: B3 chain with A246L, I320A
B7: bioF I320P (protein)
chain: B3 chain with A246L, I320P
B8: bioF V345A (protein)
chain: B3 chain with A246L, V345A
B9: bioF V345Q (protein)
chain: B3 chain with A246L, V345Q
B10: bioF I320Q (protein)
chain: B3 chain with A246L, I320Q
B11: bioF L246D (protein)
chain: B3 chain with A246D
B12: bioF L246W (protein)
chain: B3 chain with A246W
B13: bioF V345W (protein)
chain: B3 chain with A246L, V345W

Biological target: Escherichia coli (laboratory strain)
Test: barcode share on antibiotic plates over drug-free plates; higher = less susceptible
Experimental: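 A pool of E. coli strains, each edited to carry one amino-acid change in an essential protein, was grown for 48 h on minimal glucose agar with or without antibiotic; strain barcodes were sequenced; mean of two replicates.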

[1] = antibiotic: carbenicillin, 2× MIC (3.1 µg/mL)
[2] = antibiotic: gentamicin, 2× MIC (MIC 0.45 µg/mL)

Protein	fold change of barcode share [1]	fold change of barcode share [2]
B1	0.386 ± 0.26	< 0.013
B2	0.3246 ± 0.0014	0.00816 ± 0.0052
B3	0.398 ± 0.047	0.00983 ± 0.0014
B4	0.38 ± 0.1	0.00621 ± 0.0034
B5	0.376 ± 0.13	0.00433 ± 0.0049
B6	0.452 ± 0.25	0.011 ± 0.0059
B7	0.362 ± 0.081	0.0188 ± 0.00029
B8	0.409 ± 0.12	0.00952 ± 0.0051
B9	0.492 ± 0.016	0.00759 ± 0.00041
B10	0.409 ± 0.17	< 0.00835
B11	0.414 ± 0.14	0.0102 ± 0.007
B12	0.401 ± 0.11	0.00873 ± 0.00094
B13	0.717 ± 0.0075	0.0159 ± 0.0083
